# Measured values as given in PubChem BioAssay AID1345083 (National Center for Advancing Translational Sciences (NCATS), 2018).
# “And” between values parts separate entries of the source, which are not always exact repeats. Identical values can stand only once. Out of some 94,000 compounds screened, about 6,200 (6.6%) were called active. The shares of active, inactive and inconclusive entries below differ from those in the screen. The call rests on the fitted dose curve; in most records, active means well fitted inhibition curve with a large enough effect; inconclusive means small, poorly fitted or top-dose-only effect; inactive means flat fitted curve, though single readings scatter. Where the call is inconclusive, the potency comes from a doubtful curve fit.
# Assay: Cytotoxic Profiling in HEK 293 Cell Line of Diverse Libraries Using Quantitative High-Throughput Screening; further: nearly all actives have a fitted effect of over 60% in size
# Settings: HEK 293 viability, ATP luminescence (CellTiter-Glo), 48-72 h; activity change, negative = cytotoxicity: at 115 µM (top of the series) unless noted; series mostly up to 115 µM
# How it was run: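 Viability of HEK 293 cells, plated at 250 cells/well, was judged by cellular ATP after compound treatment for 48 or 72 hr. Luminescence was imaged 10 min after CellTiter-Glo addition at room temperature.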
# On the % scale 0 is the no-effect control and ±100 the full control effect; potency means the concentration at half of the fitted maximal effect; tags describe the fitted curve by direction and shape.
Structure (SMILES),Potency,outcome,"activity change, negative = cytotoxicity"
CC(NC(=O)C1(c2ccc(NS(C)(=O)=O)cc2)CCCCC1)c1ccc(F)cc1 (centres undefined),"inconclusive: 7.94 µM [inhibitor, full curve, poor fit]",–,–
N#Cc1ccc(CN2CCC3(CC2)CC(=O)c2ccc(Cl)cc2O3)cc1,"inconclusive: 31.6 µM [inhibitor, full curve, poor fit]",–,–
O=C(c1cccc(Cl)c1)N1CCC(c2nn(-c3ccccc3)c(=O)[nH]2)CC1,"inconclusive: 89.1 µM [inhibitor, single point]",–,–
COCCN1C(=O)c2ccccc2C(C(=O)N2CCN(c3ccccc3)CC2)C12CCCC2 (centres undefined),"inconclusive: 79.4 µM [inhibitor, partial curve, poor fit]",–,–
Cc1ccc(NC(=O)C2CCN(C(=O)c3ncn4c3COC(c3ccc(F)cc3)C4)CC2)cc1Cl (centres undefined),"inconclusive: 39.8 µM [inhibitor, partial curve, poor fit]",–,–
O=S(=O)(Cc1ccccc1F)N1CCC(c2noc(-c3cccnc3)n2)C1 (centres undefined),"inconclusive: 79.4 µM [inhibitor, single point]",–,–
COCCCn1c(=O)c(C(=O)N2CCN(C(=O)c3ccc(C(F)(F)F)cc3)CC2)nc2cccnc21,–,inactive,–
COc1ccc(C)cc1NC(=O)C1CN(S(=O)(=O)C2CC2)CC12CCCCC2 (centres undefined),"inconclusive: 70.8 µM [inhibitor, partial curve, poor fit]",–,–
Cc1cnc(C2CCC2)n1CC1CCN(C(=O)CC2CCCC2)CC1,"inconclusive: 79.4 µM [inhibitor, partial curve]",–,–
CC(=O)Nc1ccc(CNC[C@H]2COCc3nc4c(C)cccc4n32)cc1,"inconclusive: 100 µM [inhibitor, partial curve, poor fit]",–,–
COC[C@@H]1CN(S(=O)(=O)Cc2ccccc2)C[C@H]1c1ccncc1,"inconclusive: 89.1 µM [inhibitor, single point]",–,–
CC(C)n1nc(OC(C)(C)C(=O)Nc2ccccn2)c2cc(CN3CCOCC3)ccc21,"inconclusive: 89.1 µM [inhibitor, partial curve]",–,–
CSCCNC(=O)C1CCCN(c2nccc(Nc3ccc(C)cc3)n2)C1 (centres undefined),"inconclusive: 31.6 µM [inhibitor, partial curve, poor fit]",–,–
O=C(Nc1ccccc1F)NC1CCN(Cc2cccc(-c3ccc(F)c(F)c3)c2)CC1,"inconclusive: 17.8 µM [inhibitor, full curve, poor fit]",–,–
Cc1cnc(CCN)n1Cc1ccccc1,"inconclusive: 89.1 µM [inhibitor, single point]",–,–
CCn1cc(S(=O)(=O)NC2CCN(C(=O)N3CC4CC(C3)[C@H]3CCCC(=O)N3C4)CC2)cn1 (some centres undefined),–,–,inactive: 8.27%
COc1cc2cc(CN3CCC[C@H]3CO)c(-c3cccc(Cl)c3)nc2cc1OC,"inconclusive: 89.1 µM [inhibitor, single point]",–,–
CN(C)c1ccc(CN2CCC(c3nc4ccncc4[nH]3)C2)cc1 (centres undefined),"inactive and inconclusive: 126 µM [inhibitor, partial curve, poor fit]",–,–
COC(=O)c1ccc2c(c1)nc1n2[C@@H](CNC(=O)NC2CCCCC2)COC1,–,–,inactive: -18.3% [at 172 µM]
CCc1cnc(N)nc1N(C)CCC(O)c1ccccc1 (centres undefined),"inconclusive: 63.1 µM [inhibitor, partial curve, poor fit]",–,–

Structure (SMILES),Potency,outcome,"activity change, negative = cytotoxicity"
CC1(NC(=O)C2CC2)CN(Cc2nc(-c3ccccc3)cs2)C1,–,–,inactive: -28.9% [at 172 µM]
COc1cccc(OC)c1C(=O)N1CC(=O)N(CCOc2ccccc2)CC(O)C1 (centres undefined),"inconclusive: 89.1 µM [inhibitor, single point]",–,–
CCC(CC)CN1C[C@]23C=C[C@H](O2)C(C(=O)N2CC(n4nc(C)cc4C)C2)C3C1=O (some centres undefined),–,–,inactive: -0.623%
Cc1noc(C)c1-c1cc2cc(CO)oc2c(NCc2cccc(F)c2)n1,"inconclusive: 63.1 µM [inhibitor, partial curve, poor fit]",–,–
Cc1cccc([C@H]2C[C@@H](O)[C@@H](O)[C@@H]2NCC(C)(C)O)c1,–,–,inconclusive: -30.5% [inhibitor] [at 230 µM]
CN1CCCC1c1nc(C2CN(S(=O)(=O)c3ccc4c(c3)CCC4)C2)no1 (centres undefined),"inconclusive: 79.4 µM [inhibitor, partial curve, poor fit]",–,–
CN(Cc1cccc(C(F)(F)F)c1)C(=O)c1cccc(C(F)(F)F)c1,"inconclusive: 89.1 µM [inhibitor, single point]",–,–
CCN1C(=O)Cc2cc(C(=O)NCc3ccc(OC)cc3)ccc21,–,–,inactive: -9.26%
Cc1nn2c(c1-c1ccccc1OCc1ccccc1)N(Cc1cccc(O)c1)CCC2,active: 28.2 µM,–,–
Cn1ncc2c(NCCc3nnc(N)s3)nc(-c3ccncc3)nc21,–,–,inactive: -10.3%
CCOC(=O)N1CCN(c2nccc(-c3ccccn3)n2)CC1,"inconclusive: 39.8 µM [inhibitor, full curve, poor fit]",–,–
Cc1ccc2nc(CO[C@H]3CN(C(=O)c4ccccc4)C[C@H]3F)[nH]c2c1,"inconclusive: 89.1 µM [inhibitor, partial curve, poor fit]",–,–
CCCS(=O)(=O)N1CCCN(C(=O)C2CC2)C(c2ccccc2)CC(=O)NCC1 (centres undefined),–,–,inactive: -4.51%
O=C(c1nccc2ccccc12)N1CC(N(Cc2cccnc2)C(=O)Nc2ccccc2)C1,"inconclusive: 50.1 µM [inhibitor, partial curve, poor fit]",–,–
CC(=O)NCCNC(=O)C[C@@H]1CCNC[C@@H]1Cc1cc(-c2ccccc2)on1,–,inactive [at 172 µM],–
N#Cc1cccc(OCc2nc3c(n2Cc2ccccc2)C(=O)N(Cc2ccccc2F)CCN3)c1,"inconclusive: 39.8 µM [inhibitor, full curve, poor fit]",–,–
O=C(c1cccc(Cl)c1)N1CCC(C(=O)N2CCC(c3nc4ncccc4[nH]3)CC2)CC1,"inconclusive: 31.6 µM [inhibitor, full curve, poor fit]",–,–
CCC(=O)N1CCCCC1c1noc(COCCOC)n1 (centres undefined),–,–,inactive: -2.86%
COC(=O)[C@@H]1Cc2c([nH]c3ccccc23)[C@H]2C[C@@H](NCCNC(C)=O)C[C@@H](c3ccc(C(F)(F)F)cc3)N21,active: 25.1 µM,–,–
